Measurements: the supplement of paper PMC11417369
± gives the standard deviation of the averaged measurements. Some of the results follow.

Test system: PfAP2-LT AP2 domain (GST-tagged)
Assay: gcPBM binding intensity (ln(normalized median fluorescence intensity)); higher = stronger DNA binding
Outline: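 Binding of GST-tagged P. falciparum DNA-binding domains, expressed in E. coli and used at about 25 μg on average, was carried out for 1 h in 1× PBS containing 1% milk, 0.2 mg/ml BSA, 0.5% salmon testes DNA and 0.03% Triton X-100. The target was an Agilent 4 × 180k array of primer-extended double-stranded 36-bp intergenic genomic probes plus negative controls, read with Alexa488 anti-GST antibody at 488 nm. Binding intensity is the highest Masliner-normalised natural-log median intensity across replicate spots of either probe orientation.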

Row | Sequence | gcPBM binding intensity (ln)
1 | ATATATTGAACATATTGTACATTTTGTTAATATTTT [XGTACX_site7622] | 8.7 ± 0.43
2 | TGAATATTCCTATGCACACAAATTAAAATACATAAT [CACACA_site4403] | 9.08 ± 0.38
3 | ACAAATTTATACTTAAAACACACGTAATCATTTATA [CACACA_site1636] | 8.7 ± 0.38
4 | TAAAATAATTTATGCATACACACATATATATATATA [CACACA_site4021] | 9.5 ± 0.13
5 | AAGAAGAAATGCTTTGCATGCAAATTTTATGCCAAC [TGCATGCA_site721] | 8.92 ± 0.35
6 | CAATTTTTTAAATGCACACAAAAGGAATAAATAAAT [CACACA_site544] | 8.94 ± 0.38
7 | AACAATTGGAATAACGCATGCATTTATAATATAGAA [TGCATGCA_site298] | 9.05 ± 0.43
8 | TAAACAAAAAGGAAGAGTACTTGTAAAATTTGTAAA [XGTACX_site3003] | 8.7 ± 0.49
9 | ATATACATATCATGTAGTACAATTTTTTTACTTTTT [XGTACX_site7988] | 8.62 ± 0.46
10 | TAAAAAAATAAAATTACACACATATATAGATATATA [CACACA_site7273] | 8.75 ± 0.34
11 | CACTTTTTTTAAATGTGTACGTATATGAAAATATCA [XGTACX_site4854] | 8.52 ± 0.35
12 | TTATATTTCTTGAAGGGTACATACCATTATTTTTAA [XGTACX_site1159] | 8.43 ± 0.45
13 | ATATATTTATATATTACACACAATATTGGAGACATA [CACACA_site931] | 8.93 ± 0.4
14 | ATACATATATTAGGATGTACGTTTATTTTAGTTATT [XGTACX_site7169] | 8.87 ± 0.44
15 | AGAAAACTCGCTTTTCTAAATCTCAAAAAAAAAAAA [XGTACX_negctrl_site94] | 8.29 ± 0.48
16 | ACAAAAAAAAATATGTTAACTATATATATATATATA [CACACA_negctrl_site346] | 9.5 ± 0.014
17 | AATTGGGAACTGTAATGTACATATATTGAAAGTATA [XGTACX_site7081] | 8.82 ± 0.51
18 | TATTTATTTGTACATATACACACTTAAATATGTTTA [CACACA_site3902] | 8.92 ± 0.42
19 | TAATTAACCTATGCATTCATATAGATACATAAATAT [CACACA_negctrl_site885] | 8.72 ± 0.51

Row | Sequence | gcPBM binding intensity (ln)
20 | ACCAAATTATCAAATGGTACACATAAAATAATAAAA [XGTACX_site865] | 8.81 ± 0.46
21 | TTTTGTTGTATGATAATTCTTTTATCAATATGTCTT [TGCATGCA_negctrl_site567] | 8.73 ± 0.54
22 | GTTTCTATTCACATTTTACACACGTCCATCGCATTT [CACACA_site9142] | 9.54 ± 0.35
23 | GAACCATTTTTTGGTATACACACGTAATTATAGAAT [CACACA_site1851] | 8.89 ± 0.4
24 | TACAAAAAATTATGGAGTACATATATAATATACAAT [XGTACX_site1004] | 8.78 ± 0.42
25 | AGATCATAATATTATACACACATTATGTATATGTAA [CACACA_site1490] | 8.96 ± 0.35
26 | TGAATACATAAATATAGTACATATATATATATATTA [XGTACX_site8756] | 8.89 ± 0.39
27 | TATAATATTATTTGAAGTACAAACATAAAAGAATTA [XGTACX_site3161] | 8.6 ± 0.45
28 | ATATATATATATATGGTGCATGAAAATTTACTTTGA | 9.38 ± 0.12
29 | ATATACTCATTTAATACACACAAAGAGAAAATTAAT [CACACA_site1923] | 8.93 ± 0.46
30 | GATATTTGTTCATATACACACTTTTGATAAAATATG [CACACA_site4807] | 8.85 ± 0.4
31 | TTTTTTTTTTTTGGTAGTACATAATATTAATATAAT [XGTACX_site4422] | 8.46 ± 0.42
32 | TATATTTTCCTGCAAACACACATATAAATGGGTAGA [CACACA_site4451] | 8.73 ± 0.35
33 | TTTATATAATTTTTTTGTACATATATATGAATACAT [XGTACX_site2316] | 8.73 ± 0.48
34 | TAATTTTTTTTTTTTTTTCATTCTTTTCCTTTGATT [CACACA_negctrl_site1365] | 8.39 ± 0.64
35 | ATAGTACAACAGGTTCTTGACAAACAATATGAATGT [GTGCAC_negctrl_site442] | 9.04 ± 0.52
36 | ACATATAAGATTATGTGTCCACAAAAAAATAAAACA [XGTACX_site2867] | 8.78 ± 0.4
37 | TTTTTAATAACACTTTTGAAAAATAAAATAAAATAA [CACACA_negctrl_site821] | 7.97 ± 0.38
38 | TTTTATGTTCTTAATGCACACTTATAAGTATCTTAT [CACACA_site4895] | 8.98 ± 0.49

Row | Sequence | gcPBM binding intensity (ln)
39 | CATATCTCAATTTATGCATGCAGGATTTTTCTAATA [TGCATGCA_site516] | 8.79 ± 0.35
40 | TTTTTTTTTTTTTGGTGTACATTTATAAAAAAAAAA [XGTACX_site8368] | 8.07 ± 0.29
41 | ACACAAAAAAAAAAAAAAAAAAAAAAAAAAAAGGAA [CACACA_negctrl_site1162] | 8.71 ± 0.7
42 | AATATGTACAGACATACACACATATATATATATATA [CACACA_site1222] | 9.97 ± 0.14
43 | GAATTCCTTTGTGTATGTACATAATGATATTATTTT [XGTACX_site7369] | 8.98 ± 0.35
44 | TGATCAAATAAGTTTGCATGTCAACAATGCATATAT [TGCATGCA_site1025] | 8.7 ± 0.34
45 | CCCCTTGTGGATTCTACACACAAAAAGTCGTCAAAA [CACACA_site821] | 9.37 ± 0.28
46 | TAATTTTTTAAACACACACACATATATATATATATA [CACACA_site4230] | 9.57 ± 0.25
47 | ATATATATAAAAGAAACAACATTTATTCAAAAGGTA [CACACA_negctrl_site749] | 8.73 ± 0.38
48 | TTATTCTTTTAATATACACACTTTGTCTTTTCGCGC [CACACA_site5525] | 9.13 ± 0.56
49 | ATATAATTCAAATACAGTACATATACAATATATACA [XGTACX_site1191] | 8.66 ± 0.46
50 | ATATTATCATTTTTTTTAATGGAAAAAAAAAAAAAA [CACACA_negctrl_site1298] | 8.12 ± 0.35
51 | TACTTTTATAAAAATTTTATCAAATTCTATATATGT [TGCATGCA_negctrl_site308] | 8.62 ± 0.38
52 | TTTTAAATTTAGTGTAGTACACTTTTTTCAAATATA [XGTACX_site4659] | 8.47 ± 0.49
53 | TATTTTTCTTTTTAAAAATATATCACATGAACATTA [XGTACX_negctrl_site183] | 8.29 ± 0.45
54 | AATAACAAAATAGGCACACGCACATATATATATATA [CACACA_site1497] | 9.79 ± 0.19
55 | ATTCAAAAGATGTATACACACATGTGGATAATATAA [CACACA_site2443] | 9.21 ± 0.48
56 | GCACCCTGTATGAATGCACACATTCATAGAATTGCT [CACACA_site5475] | 9.09 ± 0.3
